Assay [1] relates to RAW-Dual. In words: NF-kB SEAP reporter activity, fold change vs agonist alone; cytotoxicity flag (confluency mask): cytotoxic (confluency <70% of control); higher = enhanced NF-kB activity. In short, it runs like this:
(§1)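 Cytotoxic wells were those whose IncuCyte confluency was below 70% of agonist controls in both mask sets. The cells were RAW-Dual macrophages at 50,000 cells/well in DMEM on 384-well plates, dosed with 50 nL of library stock by pin tool, stimulated with a PRR agonist 1 h later, and kept at 37 °C, 5% CO2 for 20 hours. IRF and NF-κB reporter activity, as fold change over agonist-alone wells, came from supernatant read by QuantiLuc luminescence and QuantiBlue absorbance, respectively.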

In assay [2] the test system is RAW-Dual. The assay can be described thus: NF-kB SEAP reporter activity, fold change vs agonist alone; higher = enhanced NF-kB activity. As to conditions: library stock concentration (final ~1000-fold dilution): 10 mM. Put shortly:
as §1

Assay [3] relates to RAW-Dual. In words: NF-kB SEAP reporter activity, fold change vs agonist alone; cytotoxicity flag (confluency mask): not cytotoxic; higher = enhanced NF-kB activity. In short, it runs like this: as §1
The mark [4] stands for this setting: agonist: ODN 1826 (TLR9) 0.5 ug/mL.
[5] abbreviates: agonist: Pam2CSK4 (TLR2/6) 0.1 ug/mL.
The mark [6] stands for this setting: agonist: Pam3CSK4 (TLR2/1) 0.1 ug/mL.
Where [7] appears, read: cytotoxicity flag (confluency mask): not cytotoxic, agonist: Imiquimod (TLR7) […].
Where [8] appears, read: cytotoxicity flag (confluency mask): not cytotoxic, agonist: MPLA (TLR4) […].

SMILES strings stand for the structures. Whole data set: some 2,900 compounds, median “NF-kB SEAP reporter activity, fold change vs agonist alone” near 0.99, cut for the highest 2% near 2.6. Some of the results follow.

In the case of `CCCCCCCCOC(=O)c1cc(O)c(O)c(O)c1` (library stock concentration (final ~1000-fold dilution): 10 mM), the “NF-kB SEAP reporter activity” value in the assay with RAW-Dual [1] (agonist: LPS (TLR4) 0.1 ug/mL) was determined as 0.521; in the assay on RAW-Dual [1] (setting [4]) it was 0.179; in the assay on RAW-Dual [1] (setting [5]) it was 0.102; in the assay with RAW-Dual [1] (setting [6]) it was 0.171.

In the case of `CN(C)CC1CCn2cc(c3ccccc32)C2=C(C(=O)NC2=O)c2cn(c3ccccc23)CCO1.Cl` (configuration not stated) (library stock concentration (final ~1000-fold dilution): 10 mM), in the assay on RAW-Dual [1] (agonist: LPS (TLR4) 0.1 ug/mL), the “NF-kB SEAP reporter activity” value worked out at 3.03.

Turning to `Cl.Clc1cccc(-c2nnnn2Cc2cccnc2)c1Cl`, the “NF-kB SEAP reporter activity” value in the assay on RAW-Dual [2] (setting [7]) was 1; in the assay on RAW-Dual [2] (setting [8]), 1.06.

On to `Cl.Clc1cccc(-c2nnnn2Cc2cccnc2)c1Cl` (library stock concentration (final ~1000-fold dilution): 10 mM), for which the “NF-kB SEAP reporter activity” value turned out to be 1.07 in the assay with RAW-Dual [3] (agonist: LPS (TLR4) 0.1 ug/mL), 0.95 in the assay with RAW-Dual [3] (setting [4]), 1.04 in the assay with RAW-Dual [3] (setting [5]) and 0.958 in the assay with RAW-Dual [3] (setting [6]).

As for `COc1nc(-c2ccc3c(c2)OCO3)n(-c2ccc(NC(=O)CSc3ccccc3)cc2)n1` (library stock concentration (final ~1000-fold dilution): 10 mM), the “NF-kB SEAP reporter activity” value is 1.21 with RAW-Dual [3] (agonist: LPS (TLR4) 0.1 ug/mL), 0.813 in the assay with RAW-Dual [3] (setting [4]), 0.809 in the assay with RAW-Dual [3] (setting [5]) and 0.821 in the assay on RAW-Dual [3] (setting [6]).

Regarding `COc1nc(-c2ccc3c(c2)OCO3)n(-c2ccc(NC(=O)CSc3ccccc3)cc2)n1`, the “NF-kB SEAP reporter activity” value in the assay with RAW-Dual [2] (setting [7]) was 0.715; with RAW-Dual [2] (setting [8]), 1.

In the case of `CCOC(=O)C(CCc1ccccc1)NC1CCc2ccccc2N(CC(=O)O)C1=O.Cl` (configuration not stated) (library stock concentration (final ~1000-fold dilution): 10 mM), the “NF-kB SEAP reporter activity” value stood at 0.997 in the assay with RAW-Dual [3] (agonist: LPS (TLR4) 0.1 ug/mL), 0.98 in the assay on RAW-Dual [3] (setting [4]), 1.03 in the assay with RAW-Dual [3] (setting [5]) and 0.994 in the assay with RAW-Dual [3] (setting [6]).

`CCOC(=O)C(CCc1ccccc1)NC1CCc2ccccc2N(CC(=O)O)C1=O.Cl` (configuration not stated): the figures for the “NF-kB SEAP reporter activity” value in the assay on RAW-Dual [2] (setting [7]) and in the assay on RAW-Dual [2] (setting [8]) were 0.99 and 0.958, respectively.

Turning to `O=C(Nc1ccc(-c2ccnc(Nc3ccc(N4CCOCC4)cc3)n2)cc1)C1CCCN1` (configuration not stated), the “NF-kB SEAP reporter activity” value with RAW-Dual [2] (setting [7]) was 1.6; in the assay on RAW-Dual [2] (setting [8]), 2.46.

In the case of `O=C(Nc1ccc(-c2ccnc(Nc3ccc(N4CCOCC4)cc3)n2)cc1)C1CCCN1` (configuration not stated) (library stock concentration (final ~1000-fold dilution): 10 mM), the “NF-kB SEAP reporter activity” value in the assay on RAW-Dual [3] (agonist: LPS (TLR4) 0.1 ug/mL) worked out at 1.86; with RAW-Dual [3] (setting [4]), 0.272; with RAW-Dual [3] (setting [5]) it was 1.05; with RAW-Dual [3] (setting [6]), 1.67.

As for `CCS(=O)(=O)Nc1ccc2c(c1)/C(=C(/Nc1ccc(CN3CCCCC3)cc1)c1ccccc1)C(=O)N2`, the “NF-kB SEAP reporter activity” value in the assay on RAW-Dual [2] (cytotoxicity flag (confluency mask): cytotoxic (confluency <70% of control), agonist: Imiquimod (TLR7) […]) worked out at 0.214; with RAW-Dual [2] (cytotoxicity flag (confluency mask): cytotoxic (confluency <70% of control), agonist: MPLA (TLR4) […]), 0.227.

For `CCS(=O)(=O)Nc1ccc2c(c1)/C(=C(/Nc1ccc(CN3CCCCC3)cc1)c1ccccc1)C(=O)N2` (library stock concentration (final ~1000-fold dilution): 10 mM), the “NF-kB SEAP reporter activity” value in the assay on RAW-Dual [1] (agonist: LPS (TLR4) 0.1 ug/mL) was determined as 0.196; with RAW-Dual [1] (setting [4]), 0.197; with RAW-Dual [1] (setting [5]), 0.0873; in the assay with RAW-Dual [1] (setting [6]) it was 0.163.

For `COc1ccc2[nH]c([S+]([O-])Cc3ncc(C)c(OC)c3C)nc2c1` (configuration not stated) (library stock concentration (final ~1000-fold dilution): 10 mM), the “NF-kB SEAP reporter activity” value in the assay with RAW-Dual [3] (agonist: LPS (TLR4) 0.1 ug/mL) is 1.09; with RAW-Dual [3] (setting [4]) it was 1.15; in the assay with RAW-Dual [3] (setting [5]) it was 1.36; in the assay with RAW-Dual [3] (setting [6]), 1.2.

Take `COc1ccc2[nH]c([S+]([O-])Cc3ncc(C)c(OC)c3C)nc2c1` (configuration not stated): the results for the “NF-kB SEAP reporter activity” value in the assay on RAW-Dual [2] (setting [7]) and in the assay on RAW-Dual [2] (setting [8]) were 1.09 and 0.941, respectively.

With `Cc1cn(C2CC(O)C(CO)O2)c(=O)[nH]c1=O` (configuration not stated) (library stock concentration (final ~1000-fold dilution): 10 mM), the “NF-kB SEAP reporter activity” value in the assay with RAW-Dual [3] (agonist: LPS (TLR4) 0.1 ug/mL) amounted to 1.16; with RAW-Dual [3] (setting [4]), 1.03; with RAW-Dual [3] (setting [5]), 1.12; in the assay on RAW-Dual [3] (setting [6]), 1.11.

On to `Cc1cn(C2CC(O)C(CO)O2)c(=O)[nH]c1=O` (configuration not stated), for which the “NF-kB SEAP reporter activity” value with RAW-Dual [2] (setting [7]) was 0.952; with RAW-Dual [2] (setting [8]), 1.03.

For the compound `COc1cc2ncnc(Nc3ccc(O)cc3)c2cc1OC`, the results for the “NF-kB SEAP reporter activity” value with RAW-Dual [2] (setting [7]) and in the assay with RAW-Dual [2] (setting [8]) were 1.05 and 1.16, respectively.

With `COc1cc2ncnc(Nc3ccc(O)cc3)c2cc1OC` (library stock concentration (final ~1000-fold dilution): 10 mM), the “NF-kB SEAP reporter activity” value in the assay on RAW-Dual [3] (agonist: LPS (TLR4) 0.1 ug/mL) came to 0.948; in the assay on RAW-Dual [3] (setting [4]), 0.826; in the assay on RAW-Dual [3] (setting [5]) it was 0.971; with RAW-Dual [3] (setting [6]), 0.867.

`NOCC(=O)O`: in the assay with RAW-Dual [2] (setting [8]), the “NF-kB SEAP reporter activity” value came out at 1.

Take `NOCC(=O)O` (library stock concentration (final ~1000-fold dilution): 10 mM): the “NF-kB SEAP reporter activity” value with RAW-Dual [3] (agonist: LPS (TLR4) 0.1 ug/mL) worked out at 1.41; in the assay on RAW-Dual [3] (setting [4]) it was 0.89; in the assay with RAW-Dual [3] (setting [5]), 1.24; in the assay with RAW-Dual [3] (setting [6]) it was 1.08.

As for `CS(=O)(=O)O.N#CC1(c2ccc(NC(=O)c3cccnc3NCc3ccncc3)cc2)CCCC1` (library stock concentration (final ~1000-fold dilution): 10 mM), the “NF-kB SEAP reporter activity” value with RAW-Dual [3] (agonist: LPS (TLR4) 0.1 ug/mL) was 0.801; in the assay with RAW-Dual [3] (setting [4]), 0.615; in the assay with RAW-Dual [3] (setting [5]), 0.453; in the assay on RAW-Dual [3] (setting [6]), 0.464.

In the case of `CS(=O)(=O)O.N#CC1(c2ccc(NC(=O)c3cccnc3NCc3ccncc3)cc2)CCCC1`, the “NF-kB SEAP reporter activity” value was 1.14 in the assay with RAW-Dual [2] (setting [7]) and 0.751 with RAW-Dual [2] (setting [8]).

`CCC(C)C(=O)OC1CCC=C2C=CC(C)C(CCC3CC(O)CC(=O)O3)C21` (configuration not stated): the “NF-kB SEAP reporter activity” value with RAW-Dual [2] (setting [7]) turned out to be 2.3; with RAW-Dual [2] (setting [8]), 1.97.

For the compound `CCC(C)C(=O)OC1CCC=C2C=CC(C)C(CCC3CC(O)CC(=O)O3)C21` (configuration not stated) (library stock concentration (final ~1000-fold dilution): 10 mM), the “NF-kB SEAP reporter activity” value stood at 3.69 in the assay with RAW-Dual [3] (agonist: LPS (TLR4) 0.1 ug/mL), 2.68 in the assay with RAW-Dual [3] (setting [4]), 1.45 in the assay with RAW-Dual [3] (setting [5]) and 2.12 with RAW-Dual [3] (setting [6]).

Turning to `CC12CC(O)C3CC1(O[C@@H]1O[C@H](CO)[C@@H](O)[C@H](O)[C@H]1O)C3(COC(=O)c1ccccc1)C(=O)O2` (some centres not stated) (library stock concentration (final ~1000-fold dilution): 10 mM), the “NF-kB SEAP reporter activity” value in the assay with RAW-Dual [3] (agonist: LPS (TLR4) 0.1 ug/mL) turned out to be 1.24; in the assay with RAW-Dual [3] (setting [4]) it was 1.12; in the assay with RAW-Dual [3] (setting [5]), 1.1; in the assay on RAW-Dual [3] (setting [6]), 1.06.

`CC12CC(O)C3CC1(O[C@@H]1O[C@H](CO)[C@@H](O)[C@H](O)[C@H]1O)C3(COC(=O)c1ccccc1)C(=O)O2` (some centres not stated): the “NF-kB SEAP reporter activity” value with RAW-Dual [2] (setting [7]) and with RAW-Dual [2] (setting [8]) was 1.03 each time.

For `CCN(CC)C(=O)Nc1ccc(OCC(O)CNC(C)(C)C)c(C(C)=O)c1.Cl` (configuration not stated), the results for the “NF-kB SEAP reporter activity” value in the assay on RAW-Dual [2] (setting [7]) and in the assay with RAW-Dual [2] (setting [8]) were 2.4 and 2.24, respectively.

As to `CCN(CC)C(=O)Nc1ccc(OCC(O)CNC(C)(C)C)c(C(C)=O)c1.Cl` (configuration not stated) (library stock concentration (final ~1000-fold dilution): 10 mM), the “NF-kB SEAP reporter activity” value in the assay on RAW-Dual [3] (agonist: LPS (TLR4) 0.1 ug/mL) was determined as 3.5; with RAW-Dual [3] (setting [4]), 2.46; in the assay with RAW-Dual [3] (setting [5]) it was 1.6; in the assay with RAW-Dual [3] (setting [6]) it was 3.15.

Source of the values: the supplement of paper PMC10037445.
